Reference: PubChem BioAssay AID504332 (National Center for Advancing Translational Sciences (NCATS), 2011)
In all, about 350,000 compounds went through this assay and about 31,000 (8.9%) were called active. This list was built around the results that the source calls inconclusive (neither active nor inactive); the mix of calls is not that of the screen. Calls follow the shape of the dose curve; as a rule, active = well fitted inhibition curve with a large enough effect; inconclusive = small, poorly fitted or top-dose-only effect; inactive = no such curve, though single readings can be large or run the other way. Where the call is inconclusive, the potency comes from a doubtful curve fit.

Target: Histone-lysine N-methyltransferase EHMT2 (Homo sapiens) (UniProt Q96KQ7)
Experiment: qHTS Assay for Inhibitors of Histone Lysine Methyltransferase G9a; also: nearly all actives have a fitted effect of over 75% in size
Details: G9a H3K9 monomethylation, AlphaScreen, 2 h; activity, negative = inhibition: at 59 µM (top of the series) unless noted
In short: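 Compounds were preincubated with 20 nM G9a for 15 min, after which biotinylated H3K9 peptide (500 nM) and SAM (20 uM) started a 2 h room-temperature reaction. Monomethylated product was quantified by antibody-based AlphaScreen chemiluminescence.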
% is scaled to controls: 0 for no effect and ±100 for the full control effect; potency is read from the fitted curve at half-maximal effect; tags tell the direction and shape of the fitted curve.

Chain of UniProt Q96KQ7 (Q96KQ7 whole entry, looked up): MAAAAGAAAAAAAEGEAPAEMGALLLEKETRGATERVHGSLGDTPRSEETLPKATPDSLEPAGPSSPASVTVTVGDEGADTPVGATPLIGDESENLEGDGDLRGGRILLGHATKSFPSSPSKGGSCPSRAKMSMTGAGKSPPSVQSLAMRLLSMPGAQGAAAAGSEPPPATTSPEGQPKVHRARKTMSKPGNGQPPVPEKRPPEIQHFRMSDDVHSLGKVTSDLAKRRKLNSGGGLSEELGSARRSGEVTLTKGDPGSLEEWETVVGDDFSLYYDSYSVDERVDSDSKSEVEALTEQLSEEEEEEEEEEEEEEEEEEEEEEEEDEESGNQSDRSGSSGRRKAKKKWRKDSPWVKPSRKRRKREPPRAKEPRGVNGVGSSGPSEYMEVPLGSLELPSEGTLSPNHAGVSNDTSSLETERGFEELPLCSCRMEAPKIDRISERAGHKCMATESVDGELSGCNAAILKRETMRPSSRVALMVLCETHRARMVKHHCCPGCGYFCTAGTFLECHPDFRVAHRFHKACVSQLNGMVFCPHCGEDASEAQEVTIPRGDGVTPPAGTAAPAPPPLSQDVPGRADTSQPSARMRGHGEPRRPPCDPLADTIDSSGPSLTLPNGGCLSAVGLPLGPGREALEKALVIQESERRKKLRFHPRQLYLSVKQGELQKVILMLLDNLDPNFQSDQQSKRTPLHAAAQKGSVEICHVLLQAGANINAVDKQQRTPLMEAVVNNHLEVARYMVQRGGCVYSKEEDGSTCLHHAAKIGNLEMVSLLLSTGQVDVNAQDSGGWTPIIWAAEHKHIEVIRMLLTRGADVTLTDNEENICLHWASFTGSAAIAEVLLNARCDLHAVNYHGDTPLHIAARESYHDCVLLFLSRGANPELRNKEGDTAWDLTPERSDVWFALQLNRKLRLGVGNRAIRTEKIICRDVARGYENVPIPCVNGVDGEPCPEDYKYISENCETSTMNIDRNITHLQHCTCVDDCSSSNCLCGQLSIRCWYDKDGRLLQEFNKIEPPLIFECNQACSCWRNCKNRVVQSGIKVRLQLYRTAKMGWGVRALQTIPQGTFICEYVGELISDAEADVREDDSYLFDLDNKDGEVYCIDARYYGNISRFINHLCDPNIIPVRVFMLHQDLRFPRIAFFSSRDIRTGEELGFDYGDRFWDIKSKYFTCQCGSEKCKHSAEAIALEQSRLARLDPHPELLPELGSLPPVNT

Row | SMILES | Potency | activity, negative = inhibition
1 | Cc1cccc(NC(=O)c2oc3ccccc3c2NC(=O)c2cc(=O)c3ccc(C)cc3o2)c1 | inconclusive: 39.8 µM [inhibitor, single point] | –
2 | CCOc1ccc(N/N=C(/C#N)C(N)=O)cc1 | inconclusive: 12.6 µM [inhibitor, single point] | –
3 | CSc1nc(C(=O)N2CCCC(N3CCN(c4ccccc4C)CC3)C2)cs1 (configuration not stated) | – | inactive: 3.18% [at 102 µM]
4 | CCOc1ccc(N(C(C)C(=O)NC2CCCCCC2)S(C)(=O)=O)cc1 (configuration not stated) | active: 14.1 µM | –
5 | Cc1ccc(C)c(S(=O)(=O)Nc2cc3c4c(c2)CC(=O)N4CCC3)c1 | inconclusive: 79.4 µM [inhibitor, partial curve, poor fit] | –
6 | Clc1ccc(SCCCCn2ccnc2)cc1 | inconclusive: 4.47 µM [inhibitor, single point] | –
7 | CN(/N=C/c1cccnc1)C1=NS(=O)(=O)c2ccccc21 | inconclusive: 89.1 µM [inhibitor, single point] | –
8 | CCN1CCN(Cc2ccc3c(c2)Cc2ccccc2-3)CC1 | inconclusive: 39.8 µM [inhibitor, single point] | –
9 | CCc1ccc(/C=C2\SC(N3CCOCC3)=NC2=O)cc1 | active: 50.1 µM | –
10 | O=C(CN1CCN(Cc2ccc(Cl)cc2)CC1)N/N=C/C=C/c1ccccc1[N+](=O)[O-] | inconclusive: 39.8 µM [inhibitor, single point] | –
11 | Cn1nc(CC(=O)NCc2ccc(F)cc2)c2ccccc2c1=O | – | inactive: 14.4% [at 102 µM]
12 | CCOc1ccc2nc(N3CCCC(C(=O)Nc4cc(C)ccc4C)C3)sc2c1 (configuration not stated) | – | inactive: -27.6%
13 | O=C(COC(=O)C1CCN(c2ccc(C(F)(F)F)cn2)CC1)Nc1ccc(F)cc1[N+](=O)[O-] | active: 11.2 µM | –
14 | COc1cc2c(cc1OC)-c1cc3ccc4c(c3c[n+]1CC2)OCO4 | inconclusive: 70.8 µM [inhibitor, partial curve, poor fit] | –
15 | CCOc1ccc(/C=C2/SC(=O)NC2=S)cc1 | inconclusive: 4.47 µM [inhibitor, full curve, poor fit] | –
16 | O=[N+]([O-])c1ccc(SCc2ccncc2)nc1 | inconclusive: 79.4 µM [inhibitor, single point] | –
17 | N#Cc1ccc(NC(=O)COC(=O)CCc2nc3ccccc3c(=O)[nH]2)cc1 | active: 50.1 µM | –
18 | CC(=O)NC(Cc1ccccc1C)C(=O)NC1CCN(c2ncccc2[N+](=O)[O-])CC1 (configuration not stated) | – | inactive: 16.7%
19 | CC(=O)Nc1cccc(-c2cc(C)c3cc4c(cc3n2)OCO4)c1 | active: 50.1 µM | –
20 | O=S(=O)(Nc1ccccc1Cl)c1ccc2[nH]c(=S)oc2c1 | active: 7.08 µM | –
21 | CC(c1nnc(SCC(=O)N2CC(=O)Nc3ccccc32)n1Cc1ccccc1)N(C)C (configuration not stated) | inconclusive: 3.16 µM [inhibitor, single point] | –
22 | CN(CCCC(=O)O)S(=O)(=O)c1ccc2c(c1)C(=O)c1cc(S(=O)(=O)N(C)CCCC(=O)O)ccc1-2 | inconclusive: 89.1 µM [inhibitor, single point] | –
23 | COc1ccc(NC(=O)CN2C(=O)NC(C)(C3CC3)C2=O)c(OC)c1 (configuration not stated) | – | inactive: -10.1%
24 | O=c1c2ccccc2n(Cc2c(F)cccc2Cl)c(=O)n1CCc1ccccc1 | – | inactive: 11.1%

Row | SMILES | Potency | activity, negative = inhibition
25 | Cc1nn(C)c(C)c1CCC(=O)N1CCCC(N2CCN(c3ccc(F)cc3)CC2)C1 (configuration not stated) | inconclusive: 44.7 µM [inhibitor, partial curve, poor fit] | –
26 | OCC1(Cc2ccccc2C(F)(F)F)CCN(Cc2ccncc2)CC1 | inconclusive: 89.1 µM [inhibitor, single point] | –
27 | CCN1CCN(Cc2ccc(NC(=O)c3cc(NC(=O)c4ccno4)cc(OC)c3)cc2C(F)(F)F)CC1 | – | inactive: -36%
28 | O=C(CSc1nnc(COc2ccc(Cl)cc2)n1Cc1ccco1)N1CCNC1=O | – | inactive: -16.3% [at 0.501 µM]
29 | Cc1ccc(-c2nc3c4ccccc4n(CC(=O)NCc4ccc(F)cc4)c(=O)n3n2)cc1 | – | inactive: -8.37%
30 | Cc1cccc(C2=N[C@@H](CC(C)C)CO2)c1 | inconclusive: 1.58 µM [inhibitor, partial curve, poor fit] | –
31 | COc1ccc(C(=O)Nc2ccc(C(=O)Nc3cccnc3)cc2)cc1 | active: 50.1 µM | –
32 | COc1ccc(NS(=O)(=O)c2ccc(-c3n[nH]c(=S)n3Cc3ccccc3)cc2)cc1 | active: 3.98 µM | –
33 | CCN(CCCNC(=O)CC(C(=O)N1CCc2ccccc21)n1ccnc1)c1ccccc1 (configuration not stated) | active: 44.7 µM | –
34 | CCOC(=O)c1c(C)[nH]c(C)c1S(=O)(=O)N(C)CC(=O)NCc1ccc(Cl)cc1 | – | inactive: -8.2%
35 | Cc1ccc(NS(=O)(=O)c2ccc(Cl)c(C(=O)Nc3cccc(C(=O)O)c3)c2)cc1 | – | inactive: -5.23% [at 102 µM]
36 | Cc1ccc2c(c1)C1(C(=O)N2)N2CCCC2C(C(=O)c2ccc3ccccc3c2)C12C(=O)Nc1ccccc12 (configuration not stated) | inconclusive: 22.4 µM [inhibitor, partial curve, poor fit] | –
37 | N#Cc1ccccc1NC(=O)CN1C(=O)NC2(CCCC2)C1=O | inconclusive: 89.1 µM [inhibitor, single point] | –
38 | Cc1ccc(/C=N/c2sc(Cc3ccccc3)c(C)c2C(N)=O)o1 | active: 44.7 µM | –
39 | O=C(CSc1nccn1-c1cccc(Cl)c1)Nc1cccc2ccccc12 | active: 11.2 µM | –
40 | CCCOc1ccc(C(=O)Nc2ccc(N3CCN(C(C)=O)CC3)cc2)cc1 | inconclusive: 35.5 µM [inhibitor, single point] | –
41 | O=C(/C(=C/c1ccccc1)n1cncn1)c1ccc(Cl)cc1Cl | – | inactive: -6.41%
42 | CSc1ccccc1NC(=O)CN(C)CC(=O)Nc1ccc(N2CCOCC2)cc1 | – | inactive: 22.5%
43 | COc1ccc(N(C)S(=O)(=O)c2cccc(C(=O)N3CCN(Cc4ccc5c(c4)OCO5)CC3)c2)cc1 | inconclusive: 44.7 µM [inhibitor, partial curve] | –
44 | Cc1nn(CCC(N)=S)c2nc(-c3cccs3)cc(C(F)(F)F)c12 | active: 10 µM | –
45 | O=C(CSc1nnc(-c2ccc(OC(F)F)cc2)o1)NCc1cccs1 | – | inactive: 10.4% [at 12.7 µM]
46 | Cc1csc(NC(=O)c2cccnc2)n1 | – | inactive: 17.9% [at 102 µM]
47 | CCc1nc(-c2cc(S(=O)(=O)N3CCN(c4ccccc4)CC3)ccc2OC)no1 | – | inactive: -10.8%
